Test results published in the supplement of paper PMC10126150.
Sequences with one replicate were seen in a single cluster, so their values are uncertain.

Tested on: ATP
Test: switch fluorescence ratio, 500 uM ATP over buffer (Cy3 cluster intensity, sum of 5 cycles each) (fold (ratio)); higher = stronger signal-on switching upon ATP binding; sequences stand for … in TCGTCGGCAGCGTCAGATGTGTATAAGAGACAGTTTTTTTTTTTTTTTTTTTTTTTTT…TC
Conditions: aptamer strand: ATP DNA aptamer (quencher-CACCTGGGGGAGTATTGCGGAGGAAGG + anchor), 100 nM annealed; ATP concentration: 500 uM; one replicate
How it was run: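 For every switch-domain sequence, the fluorescence ratio is the mean of per-cluster values, each being summed target-cycle Cy3 intensity over summed buffer-cycle Cy3 intensity. Clusters outside 100-1000 RFU were excluded. On a modified Illumina MiSeq flow-cell, the Cy3-labelled switching-strand clusters were annealed to 100 nM quencher-labelled ATP aptamer, imaged in selection buffer and then after 15 min with 500 uM ATP at 22 °C. Five such cycles were run, with NaOH stripping and re-annealing between them.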
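Further: ATP exposure 15 min at 22 °C before imaging.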

Row | Sequence | switch fluorescence ratio
1 | CCCAACGTGG | 1.01
2 | TACACGCGGC | 1.17
3 | CCTAGGGCTG | 1.02
4 | TGGAAATGAA | 1.02
5 | TGAAATAGTC | 0.933
6 | CTCTACAGCT | 1.05
7 | CGGCGGGATA | 1.02
8 | AGAATCGCAG | 1
9 | CACTAATGCT | 1.01
10 | CGGCAGGGTC | 1.04
11 | ATGCGCACGT | 1.05
12 | GTTAGGTCTT | 0.958
13 | GCAGGGCCGT | 0.976
14 | GTCTTTATGG | 1.03
15 | GGTTTCCCGG | 0.972
16 | GCTCATTTTT | 1.01
17 | AGTAACAACC | 1.03
18 | GGCTTTGCGC | 1
19 | GTGAGCTCGT | 1.08
20 | GATTACAAAT | 1.01
21 | CATATTTACC | 1.06
22 | TGCCTTGTTT | 0.99
23 | CGACGTACGT | 1.2

Row | Sequence | switch fluorescence ratio
24 | CGGGCGCAAG | 1.05
25 | CGGATTCTTC | 0.988
26 | GCTGTATCAT | 1.03
27 | CAATGATTCA | 1.02
28 | AAGGTGATTT | 1.06
29 | GGCTCTAGGT | 0.967
30 | CTTGCAAC | 0.993
31 | AATAGTGCCA | 1.02
32 | AAGTGAGTGG | 0.971
33 | GAAGACTTAA | 0.976
34 | GAATATTATA | 1.01
35 | AATATTCCA | 0.952
36 | CTAGACTAGC | 1.04
37 | CAAGTGATCA | 0.986
38 | ACTTGAGA | 0.991
39 | TATGCTGCCC | 1.01
40 | GCCAGGGTTG | 0.995
41 | GTGCCTCGAT | 0.991
42 | ATACCGATAA | 1.07
43 | GGCAGAGTGC | 1.14
44 | GCTGGTACTT | 1.01
45 | TTTTGGTCGC | 1.05
46 | GTATGTCGGG | 0.986

Row | Sequence | switch fluorescence ratio
47 | ATTTCGCGTG | 0.958
48 | GCAGTGCAGA | 1.03
49 | AAAACGACCT | 1.5
50 | AGTTAAGTGG | 0.959
51 | TACTCGTAT | 0.981
52 | CGTGTATGAA | 1.01
53 | GCTGCGTTTT | 1
54 | AAGTGCCTTA | 1.02
55 | TAAATATTAA | 0.977
56 | CGCCTGTAGA | 1.05
57 | AATACCCGAC | 1.35
58 | GAGTTAAGCA | 1.07
59 | AGATGGGCTT | 0.979
60 | ATACGGCAGG | 1.05
61 | TAAACCAGTG | 1.16
62 | CTAACAGGGC | 1.09
63 | ACATGAGGCA | 1.01
64 | CGCAGGAGCT | 1.06
65 | ACATTAGGTG | 1.34
66 | ATCGTCTACA | 1
67 | CATCCCGTGA | 1.22
68 | ACCGATATGC | 1.25
69 | CATCCCCTTT | 1.07

Row | Sequence | switch fluorescence ratio
70 | AGTCGGTCGA | 0.978
71 | CAGGTGAGAT | 1.52
72 | TTTAACCAAA | 1.24
73 | AATATTCCTT | 1.08
74 | CAGGGAGAAC | 1.02
75 | ATATGGTCT | 1.01
76 | AACCCGTATT | 0.97
77 | CGTTCCAGGG | 1.21
78 | GTTAGTGAA | 0.989
79 | AACTGAAGTT | 0.985
80 | CACTCCATAT | 1.3
81 | AAACATTTGT | 1.01
82 | TACGGCGCGC | 1.03
83 | TGGGTACGGG | 0.955
84 | GCACTATTAG | 0.99
85 | TGTTTTCCTA | 1.01
86 | TTCTTAGGGT | 0.963
87 | TACAAATACG | 1.58
88 | TTAATAGACG | 1.03
89 | TTGAGGCTTT | 1.02
90 | GGTGGTCCAC | 0.974
91 | ACAGTAGCGA | 1.04
92 | AGTGTACCGT | 0.99

Row | Sequence | switch fluorescence ratio
93 | GAGGCAAAAT | 1.11
94 | TAAGTGTCTT | 0.973
95 | GTGCAATCTG | 1.13
96 | GGGTACCGGG | 1
97 | TACAAAAGTT | 1.03
98 | AGTGCATCGG | 1.03
99 | GCTCTCTTTA | 0.961
100 | TAGGAAT | 1.06
101 | CGCACGTGAC | 1.62
102 | ATATGGCTTG | 1.01
103 | GAAAGTTGTT | 0.94
104 | ATGACTTAAT | 1.03
105 | TCGCGATTGC | 3.67
106 | CCGGTCTAGG | 1.05
107 | TTTAACGACT | 1.03
108 | CGATCAACAG | 1.03
109 | ACTGAAGGGC | 0.95
110 | GGCTCATTTG | 1.09
111 | CGGCGTCATT | 0.999
112 | CGGATTTCCT | 1.6
113 | GCTATTCCCG | 1.05
114 | TGTGCGTAG | 0.976
115 | GTATTGCGTG | 0.957

Row | Sequence | switch fluorescence ratio
116 | ATGTAGGAGG | 1.02
117 | CAGGCGGCCA | 1.01
118 | GAACGAATCG | 1.01
119 | TAGGTCTAGA | 0.984
120 | TGTTCCACAT | 1.01
121 | GCCCCTTTGA | 1.05
122 | GCGTCTTGAG | 1.02
123 | GGCTTCATAT | 1.02
124 | AGGGACGTA | 1
125 | AGGCAATATT | 1.79
126 | CTCTCTTCAT | 1.03
127 | GAATGGATAG | 0.966
128 | TTGGGCAC | 1.01
129 | TTCCGGTCAC | 1.33
130 | GTGTTTATAC | 1.04
131 | ATGACCTGCC | 3.04
132 | TATAGTCTGT | 0.973
133 | ATAATGCCGG | 0.998
134 | TTTAGCACGC | 1.05
135 | GGGAATTTGA | 0.987
136 | CCCCGTTTCA | 1.07
137 | GGTTCGGACG | 1.04
138 | TCTTGGGGCG | 0.969

Row | Sequence | switch fluorescence ratio
139 | AAGTTAAGTG | 0.977
140 | AAGAGCTTAA | 0.935
141 | CAAGGGAGAG | 0.986
142 | AAGAAAGA | 0.937
143 | GGTCGGATAT | 1.01
144 | CTGGTGGTCA | 0.99
145 | CTTCTCTTAG | 0.985
146 | CACGGCAGGC | 1.23
147 | GTTGATGAAC | 1.02
148 | CTGCGAGAAT | 1.05
149 | AGGGTCGTGG | 0.942
150 | TTGGCCGAGA | 0.989
151 | ATTCGTTGGG | 0.993
152 | CTCTTCTCGT | 0.959
153 | TGAACGGCAC | 2.1
154 | GGGCCTGTGG | 0.974
155 | CCCATATTGC | 1.03
156 | AAAGACCATG | 1.09
157 | GGATTTAGCG | 0.971
